# In PubChem BioAssay (NCI):
# Values joined by “and” are separate entries in the source; they are usually repeats but may differ in a detail not shown here. Equal values may be shown once.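 Following 48 hours of exposure in 96-well plates, responses at five concentrations were used to interpolate endpoints linearly. The concentration for 50% growth inhibition is given as GI50. TGI denotes the concentration required for complete inhibition of growth.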
# Test system: NCI-H322M lung
# Test: NCI-60 cell line screen, 48 h
Structure (SMILES),TGI,GI50
CCOC(=O)C(C)OC(=O)c1ccc(C)cc1 (configuration not stated),> 100 µM,
COC(=O)C(CCC1(C)OCCO1)C(C)=O (configuration not stated),> 100 µM,
CCOC(=O)c1c(NS(=O)(=O)c2ccc(Br)cc2)sc2c1CCCC2,30.2 µM,
CSc1c(C#N)c(O)n(-c2ccc(Cl)cc2)c(=O)c1C#N,> 100 µM,
Cc1cc(=O)[nH]c(CNC(=O)c2cccc3ccccc23)n1,> 100 µM,
C/C(=N\N=C(\N)OB(F)F)c1ccccn1,> 100 µM,
O=C(/C=C/c1ccccc1Cl)c1ccc(O)cc1,31.7 µM,17.4 µM
CCNC(=O)Nc1ccc(-c2nc3c(c(N4CCOC[C@@H]4C)n2)CCN(C2COC2)C3)cc1,> 100 µM,0.481 µM and 0.311 µM
CC(C)CC(=O)N1CCN(C(=O)CC(C)C)c2ccccc21,> 100 µM,
C[C@H](Nc1ccc(C#N)n(C)c1=O)c1cc2cc(Cl)ccc2[nH]c1=O,> 100 µM,38.4 µM
CCN(CC)CCC(=O)c1ccc(Oc2ccc(C)cc2)cc1,> 100 µM,
Clc1ccc(-c2nc(-c3c[nH]c4ncccc34)cs2)cc1,> 100 µM,> 100 µM
O=C1OCC2=C1C(c1ccccc1)c1cc3c(cc1N2CCO)CCC3 (configuration not stated),> 25 µM,0.21 µM
O=C(Nc1cccnc1)c1cccs1,> 100 µM,> 100 µM
N#Cc1ccc(Nc2cnc3cc(N)ccc3n2)cc1,> 100 µM,
COC1OC(C(=O)CP(=O)(OC)OC)C(OCc2ccccc2)C(OCc2ccccc2)C1OCc1ccccc1 (configuration not stated),30 µM and 30.9 µM,
Nc1nn(C(=O)Nc2ccc(Cc3ccccc3)cc2)c2ccc(Cl)cc12,> 100 µM,17.3 µM
COc1cc(S(=O)(=O)N/N=C/C=C/c2ccccc2)c(OC)cc1NC(C)=O,> 100 µM,
C/C=C/C=C/C1=NN(c2cccc(S(=O)(=O)O)c2)C2(C1)C(Cl)C(=O)N2c1nc2ccccc2s1 (configuration not stated),39.8 µM,
Cn1c(O)c(C=N)c(=O)n(C)c1=O,> 100 µM,
COC(=O)C(C(=O)C(=O)Nc1c(Cl)cc([N+](=O)[O-])cc1Cl)c1nc2cc(C)c(C)cc2[nH]c1=O (configuration not stated),> 100 µM,
Oc1ccc(Cl)cc1Cc1cc(Cl)cc(Cc2cc(Cl)ccc2O)c1O,9.73 µM,
O=C(/C=C/c1ccccc1O)c1ccccc1,24.7 µM,11.5 µM
O=C1C(=O)c2ccccc2C=C1[N+](=O)[O-],> 100 µM,
CC(=O)O[C@@]12[C@@H]3O[C@@]4(O)C[C@]5(C)[C@H]6C[C@@](C(C)C)(O[C@H]5c5ccoc5)O[C@H]1[C@]6(C4)O[C@]2(O)C(C)=CC3(C)C,> 100 µM,
Cn1c(=O)c2c(ncn2CCCCn2ccnc2[N+](=O)[O-])n(C)c1=O,> 100 µM,

Structure (SMILES),TGI,GI50
COc1ccc(NC(=O)CSc2nnc(Cc3ccccc3)o2)cc1,> 100 µM,
Nc1ccc(S(=O)(=O)Nc2nc3ccccc3nc2Nc2ccc(S(N)(=O)=O)cc2)cc1,> 100 µM,
N#CC(NC12CC3CC(CC(C3)C1)C2)c1ccccc1 (configuration not stated),> 100 µM,
Cc1cc2c(cc1C)C(=O)c1ncccc1C2=O,> 100 µM,
Fc1cc(C2=C[C@H](c3ccc4c(c3)OCO4)NC(=S)N2)c(Cl)cc1Cl,> 100 µM,
CCN(CC)CC(O)CNc1ccc(NCC(O)CCl)c2c1C(=O)c1ccccc1C2=O (configuration not stated),20.9 µM,
CC(C)Cc1ccc(C(C)/C=C2\CCC(CN3CCOCC3)C2=O)cc1 (configuration not stated),32.5 µM,
O=Cc1ncc(-c2ccc(C(F)(F)F)cc2)c(NC2CCCCCC2)n1,> 10 µM,> 10 µM
CCC(C#N)N(Cc1ccc(CN(C(=O)c2ccccc2)C(C#N)CC)cc1)C(=O)c1ccccc1 (configuration not stated),> 100 µM,
CCOc1ccc(/C=N/Nc2cc(C)nc3ccc(Cl)cc23)cc1,3.3 µM,1.83 µM
N#Cc1cc(-c2ccccc2)[nH]c1-c1nccc2ccccc12,> 100 µM,53.9 µM
CCS(=O)(=O)c1ccc(OC)c(Nc2ncc(-c3cccc(-c4ccccc4F)c3)o2)c1,> 25 µM,9.86 µM
NC(=O)Cc1ccccc1Oc1nccc(-c2c(-c3ccc(F)cc3)ncn2C2CCNCC2)n1,> 25 µM,> 25 µM
COc1cc(/C=C2/C[C@H]3[C@@H]4CCC5=CC(=O)CC[C@]5(C)[C@H]4CC[C@]3(C)NC2=O)cc(OC)c1OC,> 100 µM,
CC1=NN(c2cccc(Cl)c2)C(=N/c2nc3ccccc3s2)/C1=C\C=C\c1ccccc1,> 100 µM,
CCN(CC)/[N+]([O-])=N/OC,> 100 µM,
CCCCCCCCCCCCCCCCc1c(C(=O)OC)[nH]c(=S)[nH]c1=O,> 50 µM,
CCOC(=O)CCC(NC(=O)N1CCN(c2c(C)nc(C)[nH]c2=O)CC1)C(=O)OCC (configuration not stated),> 100 µM,
O=c1oc2c(Br)c(O)c(Br)cc2c2ccccc12,85.5 µM,
Cc1cc(N2CCOCC2)nc(N(CCNc2ccnc3cc(Cl)ccc23)Cc2ccco2)n1,14.4 µM,3.31 µM
CCOC(=O)NC(=O)c1cn(CCCCCCCCCCC(=O)N2CCN(CCn3cc(C(=O)NC(=O)OCC)c(=O)[nH]c3=O)CC2)c(=O)[nH]c1=O,> 100 µM,
NCCCCN,> 100 µM,
Nc1ccccc1S(=O)c1ccccc1 (configuration not stated),> 100 µM,
COc1cc(/C=C2\N=C(c3ccccc3)N(c3nc4c(Cl)cc(Cl)cc4s3)C2=O)ccc1O,> 100 µM,
Cc1oncc1C(=O)Nc1ccc(C(F)(F)F)cc1,> 100 µM,32.7 µM
CCOP(=O)(OCC)/C(=C/c1ccccc1)CC(C)=O,> 100 µM,
